Assay results reported in patent US20100036088A1, “Selective poly-N-substituted glycine antibiotics” (priority 2008, published 2010).
At least one peptide structure holds a part that was inferred or is arguable (an end, a ring closure or a residue). Some entries share one result that the patent states for a list of compounds. Square brackets hold non-standard residues; d marks the D form. Peptide text beside a SMILES is read from it. Nspe = C[C@H](NCC(=O)O)c1ccccc1; Nphe = O=C(O)CNCc1ccccc1; Nlys = NCCCCNCC(=O)O

Experiments:
[1] = RP-HPLC elution solvent composition as measure of molecular hydrophobicity; type: physicochemical; details: Table 5; average of three injections; linear 5%-95% acetonitrile/water (0.1% TFA) over 45 minutes, C18 column; measure of hydrophobicity
Description: An initial set of 15 ampetoid analogs was synthesized to determine whether peptoids are affected by structural and sequence modifications in a manner consistent with AMP activities. The designs for ampetoids in this library were derived from two antibacterial and selective amphipathic dodecamers, 1 and 2. Peptoid 1 [H-(Nlys-Nspe-Nspe)4—NH2] is composed of 2/3 Nspe, the peptoid analog of phenylalanine, and 1/3 Nlys, the peptoid analog of lysine (see FIG. 1 for the structures of representative peptoid monomers and corresponding N-substituents). Peptoid 2 [H-(Nlys-Nssb-Nspe)4—NH2] contains 1/3 isoleucine-like Nssb monomers in place of Nspe. The variant sequences were designed to effect changes in chirality, length, hydrophobicity, charge, and amphipathicity. All of these compounds were tested for antibacterial activity against representative BSL1 Gram-negative (E. coli JM109) and Gram-positive (B. subtilis BR151) bacterial strains. As an initial measure of selectivity, the lytic activity of the peptoids was determined against human erythrocytes. Table 1 summarizes the sequences synthesized, the solvent composition at RP-HPLC elution as a relative measure of molecular hydrophobicity, and antibacterial and hemolytic activities.
Following synthesis, peptoid oligomers can be cleaved from the resin, simultaneously removing the tert-butoxycarbonyl (Boc) protecting group from Nlys residues, by treatment with 10 ml 2,2,2-trifluoroacetic acid (TFA)/triisopropylsilane/H2O (95:2.5:2.5 by volume) for 30 min. The cleavage mixture is then diluted with 25 ml 50% aqueous acetonitrile, frozen, and lyophilized. Dilution and lyophilization is repeated twice more in order to remove excess TFA. Subsequent to cleavage, peptoids are each purified to >97% homogeneity by preparative scale reversed-phase HPLC using a Waters Prep LC 4000 system, with Waters 2487 dual-wavelength UV detection, and gradient elution (solvent A, 0.1 vol % trifluoroacetic acid (TFA) in water; solvent B, 0.1 vol % TFA in acetonitrile) through a Vydac (Hysperia, Calif.) 214TP101550 C4 peptide/protein column (10-15 μm, 300 Å, 5×25 cm). Following prep HPLC, peptoid purities and crude yields were determined from analytical scale HPLC, performed with a Waters 2695 Separations Module with a Waters 2487 dual-wavelength UV detector and gradient elution (solvent A, 0.1 vol % TFA in water; solvent B, 0.1 vol % TFA in acetonitrile) through a Vydac C4 214TP53 peptide/protein column (5 μm, 300 Å, 3.2×250 mm). The precise gradient employed for HPLC depended on the identity and hydrophobicity of the oligomer in question. All analytical HPLC was performed at 0.5 ml/min flow and 58° C. Preparative HPLC was performed at 50 ml/min flow and room temperature.

E. coli (ATCC 35218) = type: cell-based; details: Table 6
Procedure: Whereas the preceding generation of molecules was designed to elucidate structure function relationships of specific molecular parameters (chirality, length, hydrophobicity, etc.), another generation compounds were designed explicitly to explore effects on selectivity. Antimicrobial activity of these compounds was tested against bacterial strains E. coli (ATTC 35218) and B. subtilis (ATTC 6633) in cation-adjusted MHB using the microdilution protocols previously described. The sequences, antimicrobial activities, hemolytic activities, and metabolic inhibitory concentrations against NIH 3T3 mouse fibroblast cells are summarized in Table 3 and the rationale of their design is described below.
The potencies of all compounds were determined against representative Gram-negative (E. coli ATCC 35218) and Gram-positive (B. subtilis ATCC 6633) biosafety level 1 (BSL1) organisms. In addition to hemolytic activity, the conventional measure of toxicity to mammalian cells, the effect of each ampetoid on NIH 3T3 mouse fibroblast cells was determined using the MTS tetrazolium salt-based calorimetric assay. While hemolysis measures the degree to which erythrocytes are lysed, the MTS assay indirectly quantifies the extent to which cellular metabolic activity is inhibited.
Screening antibacterial assays. MICs were determined in 96-well microtiter plates in accordance with CLSI M7-A6 protocols. Peptoid solutions with 50 μL total volume were prepared using 2:1 serial dilutions. 50 μL of bacteria inoculum (1×10^6 CFU/mL) prepared in cation-adjusted Mueller-Hinton broth (CAMHB) was added to test wells. Control wells contained 100 μL MHB (no growth) or 50 μL inoculums with 50 μL MHB with no peptoid. […] Reported values were reproducible over three experiments, each containing two parallel trials.

| SMILES | HPLC elution (% ACN) [1] | E. coli MIC (E. coli (ATCC 35218)) |
| --- | --- | --- |
| C[C@H](NCC(=O)N(CCCCN)CC(=O)N(CC(=O)N(CCCCN)CC(=O)N(CCCCN)CC(=O)N(CCCCN)CC(=O)N(CC(=O)N(CCCCN)CC(=O)N(CC(=O)N(CCCCN)CC(=O)N(CCCCN)CC(=O)N(CC(N)=O)[C@@H](C)c1ccccc1)[C@@H](C)c1ccccc1)[C@@H](C)c1ccccc1)[C@@H](C)c1ccccc1)c1ccccc1 [1B-Nlys4,6,10, H-(Nspe-Nlys)2-Nlys2-(Nspe-Nlys)2-Nlys-Nspe)-NH2] (H-[Nspe][Nlys][Nspe][Nlys][Nlys][Nlys][Nspe][Nlys][Nspe][Nlys][Nlys][Nspe]-NH2) | 45.4 % ACN | > 100 µM |
| C[C@H](NCC(=O)N(CC(=O)N(CCCCN)CC(=O)N(CC(=O)N(CC(=O)N(CCCCN)CC(=O)N(CC(=O)N(CC(=O)N(CCCCN)CC(=O)N(CC(=O)N(CC(=O)N(CCCCN)CC(N)=O)[C@@H](C)c1ccccc1)[C@@H](C)c1ccccc1)[C@@H](C)c1ccccc1)[C@@H](C)c1ccccc1)[C@@H](C)c1ccccc1)[C@@H](C)c1ccccc1)[C@@H](C)c1ccccc1)c1ccccc1 [1C, H-(Nspe-Nspe-Nlys)4-NH2] (H-[Nspe][Nspe][Nlys][Nspe][Nspe][Nlys][Nspe][Nspe][Nlys][Nspe][Nspe][Nlys]-NH2) | 64.8 % ACN | 6.3 µM |
| C[C@@H](c1ccccc1)N(CC(=O)N(CC(=O)N(CCCCN)CC(=O)N(CC(=O)N(CC(=O)N(CCCCN)CC(=O)N(CC(=O)N(CC(=O)N(CCCCN)CC(=O)N(CC(=O)N(CC(N)=O)Cc1ccccc1)Cc1ccccc1)Cc1ccccc1)Cc1ccccc1)Cc1ccccc1)Cc1ccccc1)Cc1ccccc1)C(=O)CNCCCCN [1ach-Nspe2, H-(Nlys-Nspe-Npm)-(Nlys-Npm-Npm)3-NH2] (H-[Nlys][Nspe][Nphe][Nlys][Nphe][Nphe][Nlys][Nphe][Nphe][Nlys][Nphe][Nphe]-NH2) | 60.8 % ACN | 6.3 µM |
| C[C@@H](c1ccccc1)N(CC(=O)N(CCCCN)CC(=O)N(CC(=O)N(CC(=O)N(CCCCN)CC(=O)N(CC(=O)N(CC(=O)N(CCCCN)CC(N)=O)[C@@H](C)c1ccccc1)[C@@H](C)c1ccccc1)[C@@H](C)c1ccccc1)[C@@H](C)c1ccccc1)C(=O)CN(C(=O)CNCCCCN)[C@@H](C)c1ccccc1 [110mer, H-(Nlys-Nspe-Nspe)3-Nlys-NH2] (H-[Nlys][Nspe][Nspe][Nlys][Nspe][Nspe][Nlys][Nspe][Nspe][Nlys]-NH2) | 60.9 % ACN | 12.5 µM |
| C[C@@H](c1ccccc1)N(CC(=O)N(CCCCN)CC(=O)N(CC(=O)N(CC(=O)N(CCCCN)CC(=O)N(CC(=O)N(CC(=O)N(CCCCN)CC(=O)N(CC(=O)N(CC(=O)N(CCCCN)CC(N)=O)[C@@H](C)c1ccccc1)[C@@H](C)c1ccccc1)[C@@H](C)c1ccccc1)[C@@H](C)c1ccccc1)[C@@H](C)c1ccccc1)[C@@H](C)c1ccccc1)C(=O)CN(C(=O)CNCCCCN)[C@@H](C)c1ccccc1 [113mer, H-(Nlys-Nspe-Nspe)4-Nlys-NH2] (H-[Nlys][Nspe][Nspe][Nlys][Nspe][Nspe][Nlys][Nspe][Nspe][Nlys][Nspe][Nspe][Nlys]-NH2) | 62.8 % ACN | 3.1 µM |
